Experimental data reported in PMC5951851.
Numbering of substitutions follows the chain as printed. These are yes or no findings as the source states them, for the method shown. For some assays here: Binding seen in cells or lysates may run through a third protein. Some entries that bind do so weakly or less than the wild type. Where a sequence is shown, tags or fusion partners need not be part of it. Values belong to the binder of their own block, whether it stands above or below them.

Columns and labels:
[1] = biological target: T1, RGS1^S431A (luciferase complementation fusion) (Arabidopsis thaliana) (UniProt Q8H1F2); test: split reporter; luciferase complementation; Nluc and Cluc constructs co-expressed in N. benthamiana leaves by Agrobacterium; leaf disks after 2 days with 1 mM luciferin; with or without flg22, elf18 or chitin
T1 sequence: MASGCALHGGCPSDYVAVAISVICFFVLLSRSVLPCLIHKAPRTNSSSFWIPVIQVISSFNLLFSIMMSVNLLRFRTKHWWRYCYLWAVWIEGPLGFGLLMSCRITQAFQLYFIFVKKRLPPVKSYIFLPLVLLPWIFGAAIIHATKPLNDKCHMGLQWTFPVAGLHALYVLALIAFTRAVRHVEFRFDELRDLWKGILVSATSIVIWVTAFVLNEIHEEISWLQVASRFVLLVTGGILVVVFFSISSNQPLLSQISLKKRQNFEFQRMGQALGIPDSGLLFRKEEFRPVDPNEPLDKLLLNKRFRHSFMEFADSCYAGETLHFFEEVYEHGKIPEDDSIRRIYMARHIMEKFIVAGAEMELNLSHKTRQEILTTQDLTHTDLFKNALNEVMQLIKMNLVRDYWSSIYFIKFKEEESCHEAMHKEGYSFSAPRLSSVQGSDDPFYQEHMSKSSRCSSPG

[2] = biological target: RGS1 (luciferase complementation fusion) (Arabidopsis thaliana) (UniProt Q8H1F2); test: as above
[3] = biological target: T2, RGS1CT-FLAG (Arabidopsis thaliana) (UniProt Q8H1F2); test: co-IP; Arabidopsis protoplasts (Col-0 or rgs1-2) transfected, with or without 1 μM flg22 for 5 min, with or without co-expressed RGS1 variants; extraction buffer 50 mM HEPES pH 7.5, 150 mM KCl, 10 mM EDTA, 0.5% Triton X-100, 1 mM DTT; anti-FLAG M2 agarose, eluted with 3×FLAG peptide; anti-HA and anti-FLAG immunoblots
T2 sequence: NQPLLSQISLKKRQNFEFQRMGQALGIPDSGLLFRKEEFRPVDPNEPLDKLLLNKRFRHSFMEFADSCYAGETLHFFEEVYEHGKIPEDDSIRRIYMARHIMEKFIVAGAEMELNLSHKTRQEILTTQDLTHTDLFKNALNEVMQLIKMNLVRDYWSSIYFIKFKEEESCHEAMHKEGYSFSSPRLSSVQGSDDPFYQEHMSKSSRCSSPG

[4] = biological target: T3, RGS1CT^S431A-FLAG (Arabidopsis thaliana) (UniProt Q8H1F2); test: as above
T3 sequence: T2 sequence with S183A

[5] = biological target: T4, RGS1CT (recombinant, GST pull-down) (Arabidopsis thaliana) (UniProt Q8H1F2); test: pull-down; GST pull-down; 5 μg GST- and HIS-tagged proteins with glutathione agarose beads in 25 mM Tris-HCl, 100 mM NaCl, 1 mM DTT, pH 7.5, 1 h at 4 °C; washed with 300 mM NaCl; anti-HIS immunoblot; both purified
T4 sequence: T2 sequence

[6] = biological target: T5, XLG2 (luciferase complementation fusion) (Arabidopsis thaliana) (UniProt C6KIE6); test: split reporter; luciferase complementation; Nluc and Cluc constructs co-expressed in N. benthamiana leaves by Agrobacterium; leaf disks after 2 days with 1 mM luciferin; with or without flg22, elf18 or chitin
T5 sequence: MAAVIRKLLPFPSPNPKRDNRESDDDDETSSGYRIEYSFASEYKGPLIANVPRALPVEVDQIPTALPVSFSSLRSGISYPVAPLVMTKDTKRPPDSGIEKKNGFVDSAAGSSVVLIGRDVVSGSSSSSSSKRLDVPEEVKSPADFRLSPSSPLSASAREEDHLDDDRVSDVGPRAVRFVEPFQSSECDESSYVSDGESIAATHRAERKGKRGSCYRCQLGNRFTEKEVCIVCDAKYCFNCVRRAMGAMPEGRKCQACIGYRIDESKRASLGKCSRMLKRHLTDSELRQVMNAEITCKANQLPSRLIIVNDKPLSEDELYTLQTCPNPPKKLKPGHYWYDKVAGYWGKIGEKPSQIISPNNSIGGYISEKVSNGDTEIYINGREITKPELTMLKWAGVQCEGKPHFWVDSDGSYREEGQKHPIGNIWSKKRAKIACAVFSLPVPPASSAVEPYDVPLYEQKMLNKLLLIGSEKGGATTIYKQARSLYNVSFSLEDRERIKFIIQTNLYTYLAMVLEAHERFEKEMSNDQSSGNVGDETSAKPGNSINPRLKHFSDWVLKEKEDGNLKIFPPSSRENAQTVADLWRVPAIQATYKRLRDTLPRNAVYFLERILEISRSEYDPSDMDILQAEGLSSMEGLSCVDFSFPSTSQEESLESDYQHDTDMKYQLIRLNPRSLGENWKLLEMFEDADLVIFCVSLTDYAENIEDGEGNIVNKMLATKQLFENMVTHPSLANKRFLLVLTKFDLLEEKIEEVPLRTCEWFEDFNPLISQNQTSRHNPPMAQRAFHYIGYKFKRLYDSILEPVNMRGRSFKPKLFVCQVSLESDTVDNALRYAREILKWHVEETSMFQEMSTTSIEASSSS

[7] = biological target: T6, GPA1-FLAG (Arabidopsis thaliana), P18064; test: co-IP; Arabidopsis protoplasts (Col-0 or rgs1-2) transfected, with or without 1 μM flg22 for 5 min, with or without co-expressed RGS1 variants; extraction buffer 50 mM HEPES pH 7.5, 150 mM KCl, 10 mM EDTA, 0.5% Triton X-100, 1 mM DTT; anti-FLAG M2 agarose, eluted with 3×FLAG peptide; anti-HA and anti-FLAG immunoblots; details: remark: other sources report otherwise
T6 chain: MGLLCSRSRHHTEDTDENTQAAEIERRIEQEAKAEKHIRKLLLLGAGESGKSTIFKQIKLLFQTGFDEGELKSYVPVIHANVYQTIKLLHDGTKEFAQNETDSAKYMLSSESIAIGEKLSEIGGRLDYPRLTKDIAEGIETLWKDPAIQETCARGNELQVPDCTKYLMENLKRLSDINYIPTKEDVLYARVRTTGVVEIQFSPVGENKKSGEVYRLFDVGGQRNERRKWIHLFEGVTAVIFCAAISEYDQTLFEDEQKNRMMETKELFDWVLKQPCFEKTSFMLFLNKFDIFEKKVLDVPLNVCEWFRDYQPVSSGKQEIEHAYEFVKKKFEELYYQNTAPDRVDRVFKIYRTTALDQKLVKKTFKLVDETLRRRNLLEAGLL

[8] = biological target: T7, GPA1-FLAG (Arabidopsis thaliana) (UniProt P18064); test: co-IP; rgs1-2 mutant protoplasts without RGS1 transfected; anti-FLAG IP
T7 sequence: T6 chain

B3: LYK5 kinase domain (LYK5KD) (domain or fragment, UniProt O22808 351-643)
chain: KSAIESLTLYRFNDLQSATSNFSDENRIKGSVYRATINGDDAAVKVIKGDVSSSEINLLKKLNHSNIIRLSGFCIREGTSYLVFEYSENGSISDWLHSSGKKSLTWKQRVEIARDVAEALDYLHNYITPPHIHKNLESTNILLDSNFRAKIANFGVARILDEGDLDLQLTRHVEGTQGYLAPEYVENGVITSKLDVFAFGVAVLELLSGREAVTIHKKKEGEEEVEMLCKVINSVLGGENVREKLKEFMDPSLGNEYPLELAYTMAQLAKSCVATDLNSRPSVTQVLTTLSMI
binding [5]: binds

B4: AGB1 (luciferase complementation fusion) (protein, UniProt P49177 1-377)
chain: MSVSELKERHAVATETVNNLRDQLRQRRLQLLDTDVARYSAAQGRTRVSFGATDLVCCRTLQGHTGKVYSLDWTPERNRIVSASQDGRLIVWNALTSQKTHAIKLPCAWVMTCAFSPNGQSVACGGLDSVCSIFSLSSTADKDGTVPVSRMLTGHRGYVSCCQYVPNEDAHLITSSGDQTCILWDVTTGLKTSVFGGEFQSGHTADVLSVSISGSNPNWFISGSCDSTARLWDTRAASRAVRTFHGHEGDVNTVKFFPDGYRFGTGSDDGTCRLYDIRTGHQLQVYQPHGDGENGPVTSIAFSVSGRLLFAGYASNNTCYVWDTLLGEVVLDLGLQQDSHRNRISCLGLSADGSALCTGSWDSNLKIWAFGGHRRVI
binding [6]: binds

B5: AGB1-HA, P49177 1-377 (protein)
chain: B4 chain
binding [7]: binds

B6: AGB1-HA (protein, UniProt P49177 1-377)
chain: B4 chain
binding [8]: binds weakly

Next, values leading:

binding [1]: binds | binding [2]: binds
B1: XLG2 (luciferase complementation fusion) (protein, UniProt C6KIE6 1-861)
chain: T5 sequence

binding [3]: binds | binding [4]: binds
B2: XLG2 (co-IP with RGS1CT) (protein, UniProt C6KIE6 1-861)
chain: T5 sequence
